From patent US20240279191A1, “SMALL MOLECULE INHIBITORS OF TEAD-YAP” (The General Hospital Corporation, priority 2021, published 2024)

Tested on: MSTO-211H cells
Test: Cell proliferation assay (MTT), MSTO-211H
Conditions: Homo sapiens, read-out: IC50 MSTO-211H cell proliferation

Work on `O=C(Nc1ccccc1)N1CCN(C(=O)c2cccc(OCCC3CCCCC3)c2)CC1` [TM2, 4-(3-(2-cyclohexylethoxy)benzoyl)-N-phenylpiperazine-1-carboxamide] yielded an IC50 of 0.094 µM.
